Results as given in the BET-seq Pho4 binding data (Le et al. 2018).
Some of the results follow. Values were computed here from the reads of four pooled replicates and scatter widely.

What follows are sequences tested against T1, Pho4 (S. cerevisiae) (UniProt P07270) (assay: relative binding free energy (BET-seq); higher = weaker binding). Settings: reference: library average.
T1 sequence: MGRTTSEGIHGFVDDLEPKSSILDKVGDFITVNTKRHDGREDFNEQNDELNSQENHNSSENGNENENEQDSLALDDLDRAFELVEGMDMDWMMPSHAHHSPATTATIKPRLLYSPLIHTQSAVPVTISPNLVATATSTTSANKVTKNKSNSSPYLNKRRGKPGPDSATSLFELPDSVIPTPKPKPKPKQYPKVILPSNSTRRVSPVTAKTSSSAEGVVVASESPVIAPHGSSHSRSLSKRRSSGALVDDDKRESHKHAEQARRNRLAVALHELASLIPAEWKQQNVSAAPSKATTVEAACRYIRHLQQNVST

| Sequence | relative binding free energy [kcal/mol] |
| --- | --- |
| AAAGGCACGTGGTTGG | -0.15 |
| GTCAGCACGTGGTGAT | -0.13 |
| TATTTCACGTGACTGT | 0.33 |
| TGAAGCACGTGGGTGT | -0.23 |
| TCGGCCACGTGAAGGG | 0.09 |
| GTATTCACGTGAATCG | 0.4 |
| GCGTCCACGTGTGGGG | 0.15 |
| GTAGTCACGTGGTTTT | 0.12 |
| TTAGACACGTGTATGT | -0.04 |
| GGTCTCACGTGGGTCA | 0.01 |
| TGAGTCACGTGAAGGG | 0.22 |
| TATTGCACGTGTTTAA | -0.18 |
| AGATTCACGTGTTGTC | 0.31 |
| TACATCACGTGATTAT | 0.35 |
| ATGTGCACGTGTGTTC | 0.03 |
| TTCGGCACGTGGGATG | -0.12 |
| GTGCCCACGTGTTGGT | 0.08 |
| TAATGCACGTGTATAT | -0.01 |
| TGGGACACGTGTACGT | -0.01 |
| GTGAGCACGTGCTATT | -0.08 |
| TGCGTCACGTGGGTTG | 0.1 |
| TATGTCACGTGGTAAG | -0.02 |
| GTCAGCACGTGTGGCT | 0.09 |
| GTATGCACGTGTTAGG | 0.02 |
| GTGCGCACGTGGAGTA | -0.05 |

| Sequence | relative binding free energy [kcal/mol] |
| --- | --- |
| GTTGCCACGTGGTTTT | -0.19 |
| GCGGGCACGTGTTGTT | -0.08 |
| GTTAGCACGTGGCAGA | 0.01 |
| AGGTACACGTGGATGC | 0.12 |
| GGCTACACGTGGAGTG | 0.04 |
| ATACACACGTGTGGTG | -0.05 |
| TGGAGCACGTGGGACG | -0.13 |
| CAGGGCACGTGGGACG | -0.26 |
| GTAGGCACGTGGGGTA | -0.29 |
| TAGTGCACGTGTAGAA | 0.1 |
| CTTGGCACGTGCTATT | -0.08 |
| ATGTGCACGTGTAGTG | 0.03 |
| ATTAACACGTGAAATG | 0.21 |
| GCATGCACGTGGGTGA | -0.09 |
| GTGTGCACGTGCGTCG | -0.19 |
| TGTCTCACGTGCGGGT | 0.09 |
| GTTAACACGTGCGAGT | 0.19 |
| AACTTCACGTGTTGTA | 0.15 |
| GTTAACACGTGGATTT | 0.1 |
| ACAGGCACGTGCGGTG | -0.23 |
| GTGTTCACGTGAGCTT | 0.3 |
| GTTGTCACGTGTATTG | 0.24 |
| AAAAGCACGTGGGAGG | -0.11 |
| ATATTCACGTGGTCGA | 0.21 |
| GGTCACACGTGAGGGA | 0.39 |

| Sequence | relative binding free energy [kcal/mol] |
| --- | --- |
| ATGGTCACGTGATTGG | 0.28 |
| GGCGGCACGTGGGTTG | -0.14 |
| ATTAGCACGTGAATAT | 0.06 |
| TATCACACGTGTTTAT | 0.12 |
| ATTTGCACGTGTAAGA | 0.1 |
| GAGGTCACGTGGTAGC | 0.15 |
| GTTAGCACGTGAGAGG | 0.2 |
| GAAAGCACGTGAGGGT | 0.34 |
| TTATACACGTGTTACG | 0.02 |
| AGGAACACGTGGCTTG | 0.05 |
| GAGGGCACGTGGGTGT | -0.18 |
| TTTGGCACGTGCGGGA | -0.23 |
| TGAGGCACGTGTTACG | -0.19 |
| GTGAGCACGTGCAGGC | 0 |
| ACGTTCACGTGGTGTC | 0.27 |
| ACTGGCACGTGGTGCG | -0.24 |
| TGTCACACGTGAGTGG | 0.31 |
| GATGTCACGTGATTAT | 0.35 |
| ATTTTCACGTGTGATT | 0.38 |
| GGTCGCACGTGCGTTG | -0.11 |
| TTTGGCACGTGGCGAA | -0.15 |
| TTGTCCACGTGAGTAT | 0.27 |
| CTTTTCACGTGGTAGA | 0.23 |
| TGTTCCACGTGTTAGT | 0.04 |
| GTTGTCACGTGCAGGT | 0.12 |

| Sequence | relative binding free energy [kcal/mol] |
| --- | --- |
| CTGGTCACGTGGGGAG | 0.01 |
| AAGTACACGTGGGAAT | 0.02 |
| ATACCCACGTGGGGGT | -0.26 |
| GGGGTCACGTGGTCAG | 0.1 |
| AAGTTCACGTGAGCGG | 0.27 |
| AAGTGCACGTGTAATT | 0.02 |
| GGTGGCACGTGTTTTG | -0.1 |
| CGTTACACGTGGGTTG | -0.07 |
| ATGTTCACGTGGGTAC | 0.21 |
| TATCACACGTGTTATG | 0.39 |
| TGTTTCACGTGGTATC | 0.36 |
| TTGGGCACGTGATTAG | -0.01 |
| CCTGGCACGTGAGGGT | 0.03 |
| GTTCGCACGTGGGCGT | -0.07 |
| ATGAGCACGTGTGTAC | 0.02 |
| AGGCCCACGTGGGTGT | -0.34 |
| TATATCACGTGTATTT | 0.08 |
| CTATTCACGTGTAGGG | 0.18 |
| GATGGCACGTGTGGCA | 0.13 |
| TGTTTCACGTGGTTCG | 0.31 |
| AAGCTCACGTGTTTGG | 0.2 |
| GTAGCCACGTGAGTTG | 0.07 |
| TCTGGCACGTGTTGCG | -0.11 |
| TGGGCCACGTGGTTCA | 0.01 |
| GGATTCACGTGGTACG | 0.4 |

| Sequence | relative binding free energy [kcal/mol] |
| --- | --- |
| TGCAGCACGTGGAGCT | -0.03 |
| AGGAGCACGTGTGGTA | 0.09 |
| TAAAGCACGTGAAGTT | 0.28 |
| GGAGTCACGTGGAAAT | 0.29 |
| ATTCGCACGTGGGTAT | -0.25 |
| GAGCTCACGTGAAGGG | 0.38 |
| AGATACACGTGGGCGT | -0.13 |
| TTAGGCACGTGAATTT | 0.26 |
| GGGCTCACGTGTGATT | 0.35 |
| CTGTACACGTGGTATG | 0.03 |
| CGGGGCACGTGCGTTG | -0.2 |
| AGTGACACGTGTATAG | 0.08 |
| CTTATCACGTGAGGTC | 0.44 |
| TGATTCACGTGAGTAT | 0.37 |
| AAAATCACGTGGTGGG | 0.12 |
| AGTGCCACGTGTGGAG | -0.18 |
| ATTTACACGTGTTTAG | 0.1 |
| AGAATCACGTGCGTGG | 0.01 |
| TTCAACACGTGTTGCT | 0.07 |
| TAGTTCACGTGTTCAA | 0.19 |
| GGTTGCACGTGGCGCT | -0.06 |
| GGTAGCACGTGAGGCT | 0.17 |
| TGGAGCACGTGTTCGG | -0.13 |
| AGTGGCACGTGTTGTG | -0.13 |
| GCCGACACGTGGGGTG | -0.08 |

| Sequence | relative binding free energy [kcal/mol] |
| --- | --- |
| GATTTCACGTGTATAT | 0.2 |
| GTGTCCACGTGGGGAT | -0.03 |
| TCATGCACGTGTGTTC | 0.18 |
| TGGAACACGTGGGATG | -0.05 |
| GTGTTCACGTGAGCTA | 0.42 |
| CGGGGCACGTGTCGGT | -0.06 |
| ACAAGCACGTGTTTGT | -0.02 |
| TTATACACGTGGTAAG | -0.04 |
| CTCGGCACGTGTGGTT | 0.02 |
| TTTGGCACGTGCTGGC | -0.22 |
| ATTTGCACGTGCGACG | 0.11 |
| AGTTCCACGTGAATGT | 0.26 |
| GGTTCCACGTGGCGAT | 0.13 |
| TTAGGCACGTGATTCA | 0.11 |
| CTGGTCACGTGGTTGC | -0.05 |
| GTGATCACGTGTTAAT | 0.15 |
| GATGACACGTGGGGTA | -0.04 |
| TTGAGCACGTGTGATT | -0.05 |
| CGTTTCACGTGATTGA | 0.33 |
| GCCGTCACGTGTGAGG | 0.22 |
| GTTTTCACGTGGTCAG | 0.17 |
